Results from ChEMBL document CHEMBL4888484, “Replenishing the malaria drug discovery pipeline: Screening and hit evaluation of the MMV Hit Generation Library 1 (HGL1) against asexual blood stage Plasmodium falciparum ,using a nano luciferase reporter read-out” (2022).
Hit rate of the full screen: of about 150,000 compounds, about 540 (0.36%) showed an effect of 50% or more. This is one part of the list.

The compounds below were run on Plasmodium falciparum (assay: Primary screen in NF54 nanoGlo assay, in single point, at 2uM, 72h; a lower Z score goes with more inhibition). Conditions: timepoint 72 hour.
Format: functional, Erythrocyte
With `CCn1nc(N2CCC[C@H](NC(=O)c3cn(C)nc3C)C2)ccc1=O` the “% Inhibition” value was -10% and the Z score was 1.32.
`CCC(c1ccc(F)cc1)c1nnc(C(CC)c2ccc(F)cc2)o1` (stereo unspecified) was tested, and the “% Inhibition” value was -6% and the Z score was 0.72.
With `Cc1ccc(-c2nn(C)c(=O)c3c2CCCC3)cc1S(=O)(=O)NC[C@H]1CCCO1` the “% Inhibition” value was -16% and the Z score was 2.48.
With `O=C(O)CC1(CN2C3CCC2CC(O)(Cc2ccc(F)cc2F)C3)CC1` (stereo unspecified) the “% Inhibition” value was -8% and the Z score was 1.59.
In the case of `O=C1c2ccccc2C(=O)N1CCN1C(=O)COc2ccccc21`, the “% Inhibition” value is reported as -4% and the Z score is reported as 0.53.
`Nc1ccccc1-c1nc(-c2c[nH]c3ccccc23)cs1` was tested, and the “% Inhibition” value was -6% and the Z score was 0.85.
In the case of `CCc1onc(C)c1NC(=O)N[C@@H]1c2ccccc2OC[C@@H]1CO`, the “% Inhibition” value is reported as -3% and the Z score is reported as 0.4.
For `COc1cc(Cl)cc(CN2CC[C@H](N)C2)c1OC(C)C`, the “% Inhibition” value was -2% and the Z score was 0.28.
In the case of `O=C(O)C[C@H]1CNCCN(C(=O)c2ccccc2-c2ccccc2)C1`, the “% Inhibition” value is reported as -11% and the Z score is reported as 1.
In the case of `CC1CNCCN1C(=O)C1COc2ccccc21` (stereo unspecified), the “% Inhibition” value is reported as -22% and the Z score is reported as 3.19.
In the case of `C[C@H](NCCC(N)=O)c1cccc(Cl)c1`, the “% Inhibition” value is reported as -15% and the Z score is reported as 2.39.
`NC(=O)CNC(=O)C1(Cc2cccc(Cl)c2)CCCC1` was tested, and the “% Inhibition” value was -14% and the Z score was 1.37.
With `Cc1ccc(N2C[C@@H](C(=O)Nc3ccc(N4CCCC4=O)c(C)c3)CC2=O)cc1` the “% Inhibition” value was 0% and the Z score was 0.04.
With `O=C(Nc1ccc(-n2cnnn2)cc1)c1cccc(S(=O)(=O)N2CCOCC2)c1` the “% Inhibition” value was 5% and the Z score was -0.67.
For `N#Cc1cccc(CN[C@@H]2CO[C@H](CNC(=O)C3CCCC3)[C@H]2O)c1`, the “% Inhibition” value was 25% and the Z score was -2.9.
`CN(C)S(=O)(=O)N(Cc1cccs1)Cc1cccs1` was tested, and the “% Inhibition” value was -6% and the Z score was 0.7.
For `CCCCn1nc([C@H]2CCOC2)nc1-c1cc(C#N)c[nH]1`, the “% Inhibition” value was -11% and the Z score was 1.64.
In the case of `COc1ccc(NC(=O)[C@H](C(C)C)N(Cc2ccc(Cl)cc2)C(=O)Cn2nnc3ccccc32)cc1`, the “% Inhibition” value is reported as -1% and the Z score is reported as 0.11.
`CN(CC(=O)Nc1ccc2c(c1)OCCO2)S(=O)(=O)c1c[nH]c(C(=O)N2CCCCC2)c1` was tested, and the “% Inhibition” value was 4% and the Z score was -0.4.
With `Cc1cc(C)cc(Cc2noc([C@@H]3CCCO3)n2)c1` the “% Inhibition” value was 4% and the Z score was -0.66.
With `CC(C)(C)CNC(=O)c1[nH]cnc1C(=O)N[C@H]1CC[C@H](O)CC1` the “% Inhibition” value was 14% and the Z score was -1.64.
For `COc1ccc(/C=C/CN2C[C@H]3CCC[C@@H](C2)N(C)C3)cc1`, the “% Inhibition” value was -11% and the Z score was 1.49.
In the case of `Cc1csc(NC(=O)C(=O)NCC2CC2)n1`, the “% Inhibition” value is reported as -11% and the Z score is reported as 1.56.
For `CCCN1C[C@@H](Nc2nc(-c3cccnc3)nc3c2CCNC3)CC1=O`, the “% Inhibition” value was 6% and the Z score was -0.82.
For `CC1(CC(F)F)CN(C(=O)c2nnc(-c3ccc(F)cn3)o2)C1`, the “% Inhibition” value was -14% and the Z score was 1.81.
In the case of `CCn1cc(CNc2cnccc2OC(C)(C)C)cn1`, the “% Inhibition” value is reported as 2% and the Z score is reported as -0.23.
`Cc1nc(CN2CCOC[C@H]2c2nc[nH]n2)sc1C(C)(C)C` was tested, and the “% Inhibition” value was -4% and the Z score was 0.57.
For `CCC(=O)N1CCCN(C(=O)c2cc(C(C)C)on2)CC1`, the “% Inhibition” value was -5% and the Z score was 0.67.
In the case of `NC(=O)[C@@H]1CN(Cc2ccc(-c3ccc(Cl)cc3)s2)CCO1`, the “% Inhibition” value is reported as -11% and the Z score is reported as 1.78.
With `COC1CC(C(=O)N2CC3CC2(C(N)=O)C3)C1` (stereo unspecified) the “% Inhibition” value was 18% and the Z score was -2.25.
With `Cn1nc(C(=O)N2CC(C)(C)Oc3ccccc32)cc1OC(F)F` the “% Inhibition” value was 6% and the Z score was -0.82.
For `Cc1ccc(-n2cc3c(c2-c2ccc(Cl)cc2)c(=O)n(-c2ccccc2)n3C)cc1`, the “% Inhibition” value was -11% and the Z score was 1.41.
For `CCOCCNC(=O)C[C@]1(C(=O)NCCOCC)CCN(C(=O)OC(C)(C)C)C1`, the “% Inhibition” value was -5% and the Z score was 0.7.
`CCOc1cc(-c2c(-c3ccccc3)ncn2Cc2c(C)n[nH]c2C)ccc1OC` was tested, and the “% Inhibition” value was 12% and the Z score was -1.59.
In the case of `COc1cc(C(=O)NCC(=O)NCc2cccnc2OC)cc(OC)c1OC`, the “% Inhibition” value is reported as -4% and the Z score is reported as 0.67.
With `CCN([C@H]1CCCc2cccnc21)S(=O)(=O)c1ccco1` the “% Inhibition” value was -8% and the Z score was 1.18.
For `CC(C)(CC(=O)O)CC(=O)Nc1cccc(Cl)c1C(N)=O`, the “% Inhibition” value was 1% and the Z score was -0.15.
For `CCC(=O)N1CCC[C@H](C(=O)Nc2c(C(C)C)c(C)nc3ccccc23)C1`, the “% Inhibition” value was -3% and the Z score was 0.44.
`CCc1nc2c(=O)n(CC(=O)NC3CCCC3)nc(C)c2s1` was tested, and the “% Inhibition” value was 10% and the Z score was -1.33.
`CC(=O)N(C)OC(=O)Nc1cccc(Cl)c1` was tested, and the “% Inhibition” value was -8% and the Z score was 1.02.
`O=C(NCCNC1CCCC(C(F)(F)F)C1)c1cccs1` (stereo unspecified) was tested, and the “% Inhibition” value was -11% and the Z score was 1.31.
In the case of `CN(C(=O)c1ccnc(C2CC2)n1)C1CCN(c2cnccn2)CC1`, the “% Inhibition” value is reported as -18% and the Z score is reported as 2.94.
`C[C@@H]1CN(C(=O)CN2CCn3nc(Cc4ccccc4)cc3C2)C[C@H](C)O1` was tested, and the “% Inhibition” value was -8% and the Z score was 1.2.
In the case of `COC[C@@H]1[C@H](C(=O)Nc2cc(OC)ccc2OC)CCC(=O)N1C`, the “% Inhibition” value is reported as -12% and the Z score is reported as 1.42.
With `CCc1ncc(C(=O)N(Cc2ccccc2)Cc2ncccc2C)cn1` the “% Inhibition” value was -2% and the Z score was 0.16.
In the case of `Cc1nc([C@H]2CCCN2CC(O)COC2CCOCC2)cs1` (stereo partly specified), the “% Inhibition” value is reported as -4% and the Z score is reported as 0.67.
`Cc1cncc(C(=O)NCc2nnc(C(C)(C)C)s2)c1O` was tested, and the “% Inhibition” value was 14% and the Z score was -1.8.
In the case of `O=C(c1ccc2[nH]ccc2c1)N1C[C@H]2CC[C@@H](O)[C@H]2C1`, the “% Inhibition” value is reported as -13% and the Z score is reported as 1.25.
`Cc1nnc2ccc(N3CCCC3CC(O)c3ccc(F)cc3)nn12` (stereo unspecified) was tested, and the “% Inhibition” value was -13% and the Z score was 1.53.
With `COc1ccc(N2CCN(C(=O)CN(CC3CCC3)CC(F)(F)F)CC2)cc1` the “% Inhibition” value was -3% and the Z score was 0.39.
In the case of `CC1CCN(C(=O)Nc2cccc3c2OCCC3)CC1C(=O)O` (stereo unspecified), the “% Inhibition” value is reported as 0% and the Z score is reported as -0.03.
With `Cc1cccc(CCn2c(=O)c3ccccc3n(CC(=O)NCc3ccco3)c2=O)c1` the “% Inhibition” value was -8% and the Z score was 1.3.
In the case of `O=C(N[C@H]1CCN2C(=O)[C@@H](Cc3ccccc3)NC(=O)[C@H]12)c1cnccn1`, the “% Inhibition” value is reported as 13% and the Z score is reported as -1.53.
